Measured values reported in PubChem BioAssay AID445 (National Center for Advancing Translational Sciences (NCATS), 2006).
“And” between values parts separate entries of the source, which are not always exact repeats. Identical values can stand only once. Hit rate of the full screen: of about 110,000 compounds, about 40 (0.04%) were called active. The shares of active, inactive and inconclusive entries below differ from those in the screen. The call rests on the fitted dose curve; in most records, active means well fitted curve in the direction sought with a large enough effect in the signal ratio (not every such curve was filed as active); inconclusive means small, poorly fitted or top-dose-only effect, or a change in a side signal; inactive means flat fitted curve, though single readings scatter; the % refers to the signal ratio. A potency beside an inconclusive call is a rough fit, not a confirmed value.

Assay: IkB Signaling;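 on IkBa stabilization activation: 0% = basal untreated cells and 100% = reference inhibitor full response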
Settings: ABC-DLBCL IkBa-CBG/CBR dual luciferase ratio (green luciferase fused to IkBa over red control in OCI-Ly3 lymphoma cells), 4 h, scaled: untreated 0%
How it was run: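 Luminescence ratio of IκBα-fused green versus native red beetle luciferase in OCI-Ly3 cells, 4 h post-doxycycline with compound; red signal alone, scaled from basal (0%) to zero light (-100%), flagged nonspecific or cytotoxic effects.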

[1] = IkBa stabilization activation: at 57.1 µM (top of the series), proteasome inhibitor 100% unless noted
Potency means the concentration at half of the fitted maximal effect.

Cn1c(=O)c2[nH]c(CCCCc3nc4c([nH]3)c(=O)n(C)c(=S)n4C)nc2n(C)c1=S
IkBa stabilization activation [1]: inactive: 1.21% [at 11.4 µM, scaled: untreated 0%, proteasome inhibitor 100%]

COc1ccccc1C(=O)Nc1ccc2c(c1)OCO2
IkBa stabilization activation [1]: inactive

CCOC(=O)c1ccccc1NC(=O)CSc1nnc(Cc2cccn2C)n1-c1ccc(F)cc1
IkBa stabilization activation [1]: inconclusive: 2.38% [signal inhibitor]

COc1ccc2c(CC(=O)NCc3ccc4c(c3)OCO4)coc2c1
IkBa stabilization activation [1]: inconclusive: 10.1% [signal inhibitor]

CCc1ccc(NC(=O)Nc2ccccc2OCc2cc(=O)n3ccccc3n2)cc1
IkBa stabilization activation [1]: inconclusive: 12.6% [signal inhibitor]

COc1ccc(-c2nnn3c2nc(NCc2ccc(C)cc2)c2ccccc23)cc1
IkBa stabilization activation [1]: inconclusive: -1.16% [signal inhibitor]

O=C(c1cc(-c2ccc(F)cc2)on1)N1CCCC1
Potency [1]: inconclusive: 6.31 µM [signal inhibitor, partial curve]

O=C(Oc1ccccc1)N1CCC[C@@]2(CCN(c3ccccn3)C2)C1
IkBa stabilization activation [1]: inactive: -0.493% [at 11.4 µM, scaled: untreated 0%, proteasome inhibitor 100%]

O=C(COC(=O)C1(c2ccccc2)CC1)N1CCN(c2ccc(F)cc2)CC1
IkBa stabilization activation [1]: inconclusive: 3.15% [signal inhibitor]

CCC(=O)NCCc1cc2cc(C)c(C)cc2[nH]c1=O
IkBa stabilization activation [1]: inactive

N=c1n(CCN2CCOCC2)c2ccccc2n1CC(=O)c1ccc(Cl)c(Cl)c1
IkBa stabilization activation [1]: inconclusive: 15.2% [signal inhibitor]

O=C(CN1C(=O)C2(SCC(=O)N2c2cccc(F)c2)c2ccccc21)NCCc1ccccc1 (stereo not given)
IkBa stabilization activation [1]: inactive

CCOc1ccccc1N(C(=O)c1snc(C(N)=O)c1N)C(C(=O)NCCC(C)C)c1ccco1 (stereo not given)
IkBa stabilization activation [1]: inconclusive: 16.5% [signal inhibitor]

Cc1ccccc1C(=O)OCc1cc(=O)n2nc(C3CCCCC3)sc2n1
IkBa stabilization activation [1]: inactive

Cc1nnc2c(N3CCN(c4ccc(F)cc4)CC3)nc3ccc(C(=O)c4ccccc4)cc3n12
IkBa stabilization activation [1]: inactive

CCCc1ccc(S(=O)(=O)N2CCC(c3nnc(-c4cccc(C)c4)o3)CC2)cc1
IkBa stabilization activation [1]: inconclusive: 2.92% [signal inhibitor]

CCn1c(=O)c2cc(C(=O)NCCCN3CCN(c4ccc(F)cc4)CC3)sc2c2ccccc21
IkBa stabilization activation [1]: inconclusive: -1.92% [signal inhibitor]

COc1ccc(CNc2ncnc3ccc(-c4ccccc4C#N)cc23)c(OC)c1
IkBa stabilization activation [1]: inactive: 3.89% [at 11.4 µM, scaled: untreated 0%, proteasome inhibitor 100%]

CC(C)Oc1ccc(CNC(=O)c2ccc3c(c2)nc2n3CCCCC2)cc1
IkBa stabilization activation [1]: inconclusive: 6.24% [signal inhibitor]

COc1ccc(C)cc1NC(=O)c1c2c(nc3ccccc13)C(=O)N(C1CCCCC1)C2
Potency [1]: inconclusive: 39.8 µM [signal inhibitor]

CCOc1ccc(Br)cc1C1C(C(=O)OC)=C(C)NC2=C1C(=O)c1ccccc12 (stereo not given)
IkBa stabilization activation [1]: inconclusive: 5.13% [signal inhibitor]

Cc1ccc(Cl)cc1NC(=O)C(Cc1ccccc1)NS(=O)(=O)c1cccc2nsnc12 (stereo not given)
IkBa stabilization activation [1]: inconclusive: 4.5% [signal inhibitor]

CCc1c(C)sc2c1CCN(C(=O)Nc1ccccc1C(=O)OC)C2c1ccc(OC)cc1 (stereo not given)
IkBa stabilization activation [1]: inconclusive: 0.429% [signal inhibitor]

COc1ccc(OC)c(C2Nc3c(C)cc(C)cc3-c3cc(C)nn32)c1 (stereo not given)
IkBa stabilization activation [1]: inconclusive: 3.26% [signal inhibitor]

Cc1ccc(NS(=O)(=O)c2ccc3c(c2)CC(=O)N3)cc1Cl
IkBa stabilization activation [1]: inconclusive: 2.23% [signal inhibitor]

O=C(NCCC1=CCCCC1)c1ccc(Cl)c(S(=O)(=O)N2CCOCC2)c1
IkBa stabilization activation [1]: inconclusive: 0.108% [signal inhibitor]

CC(C)c1ccc(C2=CC(c3cccc(Cl)c3)n3c(nc4ccccc43)N2)cc1 (stereo not given)
IkBa stabilization activation [1]: inconclusive: 6.17% [signal inhibitor]

CCc1cccc(NC(=O)Cn2c(=O)n(CCC(=O)NCc3ccccc3Cl)c(=O)c3sccc32)c1
IkBa stabilization activation [1]: inconclusive: -1.43% [signal inhibitor]

CCOc1ccc2c(c1)C(C)=CC(C)(C)N2
Potency [1]: inconclusive: 25.1 µM [rising, partial curve]

COc1cc2c(cc1OC)C(C(=O)NC1CC1)C1c3ccccc3CCN1C2=O (stereo not given)
IkBa stabilization activation [1]: inactive

Cc1cc(C)cc(NC(=O)c2sc3nc4n(c(=O)c3c2C)N=C(c2ccccc2)CS4)c1
IkBa stabilization activation [1]: inconclusive: 0.203% [signal inhibitor]

CCn1nc(NC(=O)c2ccncc2)c2cc3ccc(C)cc3nc21
IkBa stabilization activation [1]: inactive

CCN(CC)CCNc1ccnc2cc(Cl)ccc12
IkBa stabilization activation [1]: inactive

COCCn1c(=O)c(-c2cccs2)nc2cnc(OCc3ccccc3)nc21
IkBa stabilization activation [1]: inactive: -0.465% [at 11.4 µM, scaled: untreated 0%, proteasome inhibitor 100%]

CCOc1ccc(N2CC(c3nc4ccccc4n3CCCCOc3ccc(OC)cc3)CC2=O)cc1 (stereo not given)
IkBa stabilization activation [1]: inconclusive: -0.515% [signal inhibitor]

Cc1cc(=O)n2nc(N3CCC(C(=O)Nc4c(C)cccc4C)CC3)sc2n1
IkBa stabilization activation [1]: inactive

COc1ccc(C2=C(C)C(=O)N(Cc3ccc(C(=O)NC(C)c4ccccc4)cc3)S2(=O)=O)cc1 (stereo not given)
IkBa stabilization activation [1]: inconclusive: 0.165% [signal inhibitor]

Cc1c(C(=O)O)cnc2cc(-c3ccc(Cl)cc3)nn12
Potency [1]: inconclusive: 15.8 µM [signal inhibitor, partial curve]

Cc1cccc(N2C(=O)CSC23C(=O)N(CC(=O)Nc2cccc(Cl)c2)c2ccccc23)c1 (stereo not given)
IkBa stabilization activation [1]: inconclusive: 8.24% [signal inhibitor]

O=C(NC1CCCCCC1)C1c2ccccc2C(=O)N1Cc1ccc(F)cc1 (stereo not given)
IkBa stabilization activation [1]: inconclusive: 6.42% [signal inhibitor]

COc1ccc(CNC(=O)CN2C(=O)CSc3ccc(S(=O)(=O)N(C)C)cc32)cc1
IkBa stabilization activation [1]: inactive

O=C(NCc1ccco1)C(c1cccs1)N(C(=O)C1COc2ccccc2O1)c1cccc(O)c1 (stereo not given)
IkBa stabilization activation [1]: inconclusive: 4.63% [signal inhibitor]

COc1ncc2nc(-c3cn(C)c4ccccc34)c(=O)n(CCC#N)c2n1
IkBa stabilization activation [1]: inactive: -1.21% [at 11.4 µM, scaled: untreated 0%, proteasome inhibitor 100%]

COc1ccccc1C(=O)NCCn1cc(SCC(=O)Nc2nnc(C)s2)c2ccccc21
IkBa stabilization activation [1]: inconclusive: -0.872% [signal inhibitor]

Cc1nc2ccccc2n1CCc1nc2c3ccccc3nc(SCC(=O)Nc3cccc(C(F)(F)F)c3)n2n1
IkBa stabilization activation [1]: inconclusive: -0.152% [signal inhibitor]

CCCCOc1ccc(C(=O)N2CC(=O)Nc3ccc(Br)cc3C2c2ccc(F)cc2)cc1 (stereo not given)
IkBa stabilization activation [1]: inconclusive: 2.17% [signal inhibitor]

COc1ccc(Br)cc1Cn1nnc(C(=O)Nc2ccc(C)cc2C)c1N
IkBa stabilization activation [1]: inconclusive: 1.25% [signal inhibitor]

O=C(CN(C(=O)CCC(=O)Nc1nccs1)c1ccc2c(c1)OCCO2)NCc1ccco1
IkBa stabilization activation [1]: inactive

Cn1c(=O)n(-c2ccc3c(c2)OCO3)c2nc(-c3ccc(Cl)cc3)nc(C(N)=O)c21
IkBa stabilization activation [1]: inactive

CCCc1nc2ccccc2c(=O)n1/N=C/c1ccc(O)cc1O
IkBa stabilization activation [1]: inactive

O=C(Cn1nc(-c2ccccc2)c2cnc3ccccc3c21)Nc1ccccc1
IkBa stabilization activation [1]: inconclusive: 7.61% [signal inhibitor]

Cc1cccc(N2CCN(C(=O)Cn3ccc4ccccc4c3=O)CC2)c1C
IkBa stabilization activation [1]: inconclusive: 4.32% [signal inhibitor]

COc1ccccc1CC(=N)N1C[C@@H]2C(=O)CCC(c3ccccc3)(c3ccccc3)[C@@H]2C1
IkBa stabilization activation [1]: inconclusive: 0.636% [signal inhibitor]

CCOC(=O)c1[nH]cnc1C(=O)O
IkBa stabilization activation [1]: inactive

Nn1c(SCC(=O)Nc2ccc(F)cc2)nnc1-c1cccnc1
IkBa stabilization activation [1]: inconclusive: 11.7% [signal inhibitor]

Cc1cc(NC(=O)c2oc3ccccc3c2C)ccc1-n1cnnn1
IkBa stabilization activation [1]: inconclusive: 3.1% [signal inhibitor]

CCCCOc1ccc(C(=O)Nc2ccc(S(=O)(=O)Nc3nc(C)cc(C)n3)cc2)cc1
Potency [1]: inconclusive: 15.8 µM [signal inhibitor]

O=C(CSc1nnc(-c2ccc(O)cc2)n1Cc1ccco1)c1cccs1
IkBa stabilization activation [1]: inactive

CCCc1ccc(OCc2ccc(C(=O)OC)o2)c(OC)c1
Potency [1]: inconclusive: 15.8 µM [signal inhibitor, partial curve]

Cc1ccc(S(=O)(=O)Cn2nnnc2C(CC(C)C)N2CCN(c3ccc(F)cc3)CC2)cc1 (stereo not given)
IkBa stabilization activation [1]: inactive

COCCCNC(=O)c1ccc(Cn2c(=O)c3ccccc3n(CC(=O)Nc3c(C)cccc3C)c2=O)cc1
IkBa stabilization activation [1]: inactive

Cc1nn2c(C)c(C(=O)N3CCN(c4ccccc4F)CC3)cnc2c1-c1ccc(F)cc1
IkBa stabilization activation [1]: inconclusive: -0.639% [signal inhibitor]

CCN(CC)CCC[C@H](C)Nc1c2ccc(Cl)cc2nc2ccc(OC)cc12
IkBa stabilization activation [1]: inconclusive: 13.3% [signal inhibitor] [at 25.6 µM, scaled: untreated 0%, proteasome inhibitor 100%]
IkBa stabilization activation (at 57.1 µM (top of the series), proteasome inhibitor 100%): inactive: -28.5%

O=c1c(O)c(-c2ccc(O)c(O)c2)oc2cc(O)ccc12
IkBa stabilization activation [1]: inactive: -3.66% [at 11.4 µM, scaled: untreated 0%, proteasome inhibitor 100%] and inactive: -5.05% [at 11.4 µM, scaled: untreated 0%, proteasome inhibitor 100%]
